# Results from the supplement of paper PMC8728848.
# The other results are listed elsewhere or left out.
# B1: CPA (Cicer arietinum) (protein)
# chain: MAFSYLNLVLVTLTTLFFLQTTKVKSQKSVSFHITNFTISRPSITLQGTAEFLPNVLLLNDIEHPVFVVGRALYSKPITLWNNKTGKVASFVTSFTFDVQDLKKTVPGHGLVFFLAPSGSEIPFSSDGGNLGVVDGKNAFNRFVGVEFDNFVNSWDPKYSHVGINVNSLISTKTVKWNRVSGELVKVSIVYDSVSTTLTVIVTYKNGQISILSQLVDLKAVLPDTVNIGFSASTTLVSPRQLHNIHSWSFTSTFET
# What was measured:
# Experiment in all cases: glycan array binding signal (z-score within array); higher = stronger binding
# Conditions in all cases: glycan notation: IUPAC condensed, linker removed
# Neu5Ac(a2-8)Neu5Ac = target: Neu5Ac(a2-8)Neu5Ac
# Summary of the method: (§1)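 The binding signal is a Z-score computed within each array. Data were drawn from 3228 arrays in the Consortium for Functional Glycomics database, restricted to those with a known protein sequence. Scores were averaged over arrays of the same protein sequence at different concentrations or buffers, and over linkers, and negative values can be taken as non-binding.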
# [1] = target: Neu5Ac(a2-8)Neu5Ac(a2-3)Gal(b1-3)GalNAc(b1-4)[Neu5Ac(a2-3)]Gal(b1-4)Glc
# Summary of the method: as §1
# [2] = target: Neu5Ac(a2-8)Neu5Ac(a2-3)Gal(b1-3)GalNAc(b1-4)[Neu5Ac(a2-8)Neu5Ac(a2-3)]Gal(b1-4)Glc
# Summary of the method: as §1
# [3] = target: Neu5Ac(a2-8)Neu5Ac(a2-3)Gal(b1-4)Glc
# Summary of the method: as §1
# [4] = target: Neu5Ac(a2-8)Neu5Ac(a2-3)Gal(b1-4)GlcNAc
# Summary of the method: as §1
# [5] = target: Neu5Ac(a2-8)Neu5Ac(a2-3)[Gal(b1-3)GalNAc(b1-4)]Gal(b1-4)Glc
# Summary of the method: as §1
# [6] = target: Neu5Ac(a2-8)Neu5Ac(a2-3)[GalNAc(b1-4)]Gal(b1-4)Glc
# Summary of the method: as §1
# [7] = target: Neu5Ac(a2-8)Neu5Ac(a2-8)Neu5Ac
# Summary of the method: as §1
# [8] = target: Neu5Ac(a2-8)Neu5Ac(a2-8)Neu5Ac(a2-3)Gal(b1-4)Glc
# Summary of the method: as §1
# [9] = target: Neu5Ac(a2-8)Neu5Ac(a2-8)Neu5Ac(a2-3)[Gal(b1-3)GalNAc(b1-4)]Gal(b1-4)Glc
# Summary of the method: as §1
# [10] = target: Neu5Ac(a2-8)Neu5Ac(a2-8)Neu5Ac(a2-3)[GalNAc(b1-4)]Gal(b1-4)Glc
# Summary of the method: as §1
# [11] = target: Neu5Ac(a2-8)Neu5Ac(a2-8)Neu5Ac(a2-8)Neu5Ac(a2-3)[GalNAc(b1-4)]Gal(b1-4)Glc
# Summary of the method: as §1
# [12] = target: Neu5Ac(a2-8)Neu5Gc(a2-3)Gal(b1-4)GlcNAc
# Summary of the method: as §1
# [13] = target: Neu5Ac(b2-6)Gal(b1-4)GlcNAc
# Summary of the method: as §1
# Neu5Ac(b2-6)GalNAc = target: Neu5Ac(b2-6)GalNAc
# Summary of the method: as §1
# [14] = target: Neu5Ac9Ac(a2-3)Gal(b1-3)GlcNAc
# Summary of the method: as §1
# [15] = target: Neu5Ac9Ac(a2-3)Gal(b1-4)GlcNAc
# Summary of the method: as §1
# [16] = target: Neu5Ac9Ac(a2-6)Gal(b1-4)GlcNAc
# Summary of the method: as §1
# [17] = target: Neu5Gc(a2-3)Gal(b1-3)GlcNAc
# Summary of the method: as §1
# [18] = target: Neu5Gc(a2-3)Gal(b1-3)[Fuc(a1-4)]GlcNAc
# Summary of the method: as §1
# Neu5Gc(a2-3)Gal(b1-4)Glc = target: Neu5Gc(a2-3)Gal(b1-4)Glc
# Summary of the method: as §1
# [19] = target: Neu5Gc(a2-3)Gal(b1-4)GlcNAc
# Summary of the method: as §1
# [20] = target: Neu5Gc(a2-3)Gal(b1-4)GlcNAc(b1-3)Gal(b1-4)GlcNAc(b1-2)Man(a1-3)[Neu5Gc(a2-3)Gal(b1-4)GlcNAc(b1-3)Gal(b1-4)GlcNAc(b1-2)Man(a1-6)]Man(b1-4)GlcNAc(b1-4)GlcNAc
# Summary of the method: as §1
# [21] = target: Neu5Gc(a2-3)Gal(b1-4)[Fuc(a1-3)]GlcNAc
# Summary of the method: as §1
# [22] = target: Neu5Gc(a2-6)Gal(b1-4)GlcNAc
# Summary of the method: as §1
# Neu5Gc(a2-6)GalNAc = target: Neu5Gc(a2-6)GalNAc
# Summary of the method: as §1
# [23] = target: Neu5Gc(a2-8)Neu5Ac(a2-3)Gal(b1-4)GlcNAc
# Summary of the method: as §1
# [24] = target: Neu5Gc(a2-8)Neu5Gc(a2-3)Gal(b1-4)GlcNAc
# Summary of the method: as §1
# [25] = target: Neu5Gc(a2-8)Neu5Gc(a2-3)Gal(b1-4)GlcNAc(b1-3)Gal(b1-4)GlcNAc
# Summary of the method: as §1
# [26] = target: Neu5Gc(a2-8)Neu5Gc(a2-6)Gal(b1-4)GlcNAc
# Summary of the method: as §1
# [27] = target: Neu5Gc(b2-6)Gal(b1-4)GlcNAc
# Summary of the method: as §1
binder,measurement,setting,value
B1,glycan array binding signal (z-score),Neu5Ac(a2-8)Neu5Ac,-0.389
same,glycan array binding signal (z-score),[1],-0.668
same,glycan array binding signal (z-score),[2],-0.364
same,glycan array binding signal (z-score),[3],-0.501
same,glycan array binding signal (z-score),[4],-0.647
same,glycan array binding signal (z-score),[5],0.008
same,glycan array binding signal (z-score),[6],0.032
same,glycan array binding signal (z-score),[7],-0.326
same,glycan array binding signal (z-score),[8],-0.579
same,glycan array binding signal (z-score),[9],-0.101
same,glycan array binding signal (z-score),[10],0.349
same,glycan array binding signal (z-score),[11],-0.385
same,glycan array binding signal (z-score),[12],-0.706
same,glycan array binding signal (z-score),[13],-0.458
same,glycan array binding signal (z-score),Neu5Ac(b2-6)GalNAc,-0.624
same,glycan array binding signal (z-score),[14],-0.445
same,glycan array binding signal (z-score),[15],-0.168
same,glycan array binding signal (z-score),[16],-0.617
same,glycan array binding signal (z-score),[17],-0.621
same,glycan array binding signal (z-score),[18],-0.613
same,glycan array binding signal (z-score),Neu5Gc(a2-3)Gal(b1-4)Glc,-0.318
same,glycan array binding signal (z-score),[19],-0.402
same,glycan array binding signal (z-score),[20],-0.103
same,glycan array binding signal (z-score),[21],-0.398
same,glycan array binding signal (z-score),[22],-0.31
same,glycan array binding signal (z-score),Neu5Gc(a2-6)GalNAc,0.06
same,glycan array binding signal (z-score),[23],-0.396
same,glycan array binding signal (z-score),[24],-0.626
same,glycan array binding signal (z-score),[25],-0.35
same,glycan array binding signal (z-score),[26],-0.362
same,glycan array binding signal (z-score),[27],-0.382
